PubChem BioAssay AID686978 (National Center for Advancing Translational Sciences (NCATS), 2013)
Among all 420,000 compounds or so, about 64,000 (15%) were called active. This list was built around the results that the source calls inconclusive (neither active nor inactive); the mix of calls is not that of the screen. Calls follow the shape of the dose curve; as a rule, active = well fitted inhibition curve with a large enough effect; inconclusive = small, poorly fitted or top-dose-only effect; inactive = flat fitted curve, though single readings scatter. Potencies of inconclusive entries are left out as doubtful fits.

Test: qHTS for Inhibitors of human tyrosyl-DNA phosphodiesterase 1 (TDP1): qHTS in cells in absence of CPT; also: nearly all actives have a fitted effect of over 55% in size
Details: DT40 Tdp1-/- hTDP1 cells, no CPT, ATP luminescence, 48 h; activity change, negative = growth inhibition: at 46.2 µM (top of the series) unless noted
Summary of the method: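 Stably hTDP1-transfected Tdp1-null chicken DT40 cells were treated with library compounds minus camptothecin and grown for at least 48 hr at 37 °C, after which cellular ATP was quantified by luminescence.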
% is scaled to controls: 0 for no effect and ±100 for the full control effect; potency is read from the fitted curve at half-maximal effect; tags tell the direction and shape of the fitted curve.

| SMILES | activity change, negative = growth inhibition | Potency |
| --- | --- | --- |
| O=C(CSc1nnc(-c2cccc(S(=O)(=O)N3CCCC3)c2)n1-c1ccccc1)Nc1ccc(C(=O)O)cc1 | inactive: 0.586% | – |
| CC(=O)N1CCc2cc(S(=O)(=O)NCCC(=O)NCCc3ccccc3)ccc21 | – | inconclusive [inhibitor, single point] |
| CCOc1cc(/C=C2\SC(=Nc3ccc(CC)cc3)NC2=O)ccc1OCC(=O)O | inactive: -7.73% | – |
| COc1ccc(/C=N/NS(=O)(=O)c2ccc(F)cc2)cc1COc1cc(F)ccc1[N+](=O)[O-] | inactive: -20.7% | – |
| O=C(C1CCCN(S(=O)(=O)c2cccs2)C1)N1CCc2ccccc2C1 (configuration not stated) | – | inconclusive [inhibitor, partial curve, poor fit] |
| COc1ccc(N2CCN(C(=O)c3nc(-c4ccc(Cl)cc4)n4c3CCCCC4)CC2)cc1 | – | active: 20.6 µM |
| Cc1cc(F)ccc1S(=O)(=O)N1CCCOC1CNC(=O)C(=O)NCCc1ccco1 (configuration not stated) | inactive: -25.8% | – |
| Cc1ccc(Cl)cc1N1CCN(CCNC(=O)Nc2ccc(Cl)cc2)CC1 | – | inconclusive [inhibitor, full curve, poor fit] |
| CCOC(=O)c1ccc(Oc2cn[nH]c2-c2ccc(OCC(=O)NN)cc2O)cc1 | inactive: -21% | – |
| O=C(O)Cn1ncn(-c2ccc(OC(F)(F)F)cc2)c1=O | inactive: -0.109% | – |
| COc1ccc(-c2ccc(NS(=O)(=O)c3cccc([N+](=O)[O-])c3)cc2)nn1 | – | inconclusive [inhibitor, partial curve] |
| CC(C)CC1C(=O)N(Cc2cn(CCC3OCCCO3)nn2)CCS(=O)(=O)N1Cc1ccc(-c2ccc(Cl)cc2)cc1 (configuration not stated) | – | inconclusive [inhibitor, partial curve, poor fit] |
| Cn1c(SCC(=O)NCc2ccc3c(c2)OCO3)nc2scc(-c3cccs3)c2c1=O | – | inconclusive [inhibitor, single point] |
| Cc1nn(-c2ccccc2)c(-c2ccccc2[N+](=O)[O-])c1CC#N | – | active: 16.4 µM |
| COc1ccc(CCNC(=O)C2CC(c3ccc([N+](=O)[O-])cc3)=NO2)cc1 (configuration not stated) | – | inconclusive [inhibitor, single point] |
| Cc1ccc(S(=O)(=O)N2CCN(c3ncnc4c3cnn4-c3ccccc3)CC2)cc1 | inactive: -16.7% | – |
| CCSc1nnc(NC(NC(C)=O)(C(F)(F)F)C(F)(F)F)s1 | inactive: 1.01% | – |
| CCOC(=O)c1ccc(NS(=O)(=O)c2ccc3c(c2)CCCN3C(C)=O)cc1 | – | inconclusive [inhibitor, single point] |
| CCOc1ccccc1Nc1nc2ccc(C)cc2n2cnnc12 | inactive: -13.3% | – |

| SMILES | activity change, negative = growth inhibition | Potency |
| --- | --- | --- |
| S=C1NC[C@H](c2ccccc2)N1CC1CCCCC1 | – | active: 23.1 µM |
| CS(=O)(=O)N1CCc2cc(C(=O)N3CCN(c4ccc(F)cc4)CC3)ccc21 | – | active: 20.6 µM |
| CCN(C(=O)c1cccc(S(=O)(=O)N(C)C)c1)C12CC3CC(CC(C3)C1)C2 | – | active: 11.6 µM |
| COc1cc(OC)c(OC)cc1/C=C1\CC(C)C/C(=C\c2cc(OC)c(OC)cc2OC)C1=O (configuration not stated) | – | active: 18.4 µM |
| COc1ccc(S(=O)(=O)NC(=O)C2(C)CCN2C(=O)C2(c3ccccc3)CCCC2)cc1 (configuration not stated) | – | inconclusive [inhibitor, partial curve] |
| Cc1ccc(S(=O)(=O)N2C[C@H]3C(=O)C[C@@H](c4cccc(Cl)c4)N(S(=O)(=O)c4ccc(C)cc4)[C@H]3C[C@H]2c2ccccc2)cc1 | inactive: -7.59% | – |
| CCOCCCNc1ccc(N2C(=O)CCCC2=O)cc1[N+](=O)[O-] | inactive: -2.97% | – |
| Oc1ccccc1N=Cc1c(O)ccc2oc3c(c12)CCCC3 | – | inconclusive [inhibitor, single point] |
| O=C(COC(=O)c1cccc(Br)c1)NC1CCCCCCC1 | inconclusive: -35% [inhibitor] | – |
| Cc1cnc(NC(=O)C2CC(=O)N(c3cccc(Cl)c3)C2)s1 (configuration not stated) | – | active: 5.8 µM |
| CC1(C)NC(=O)N(CCOCCOc2c(Cl)cc(Cl)cc2Cl)C1=O | – | inconclusive [inhibitor, single point] |
| CC(CCC(=O)O)C1CC[C@@]2(C)C3C(=O)CC4C(C)(C)C(O)CC[C@]4(C)C3C(=O)C[C@]12C (some centres not stated) | inactive: 12.4% | – |
| O=S(=O)(NCc1cn2ccsc2n1)c1ccc2c(c1)OCCO2 | – | active: 23.1 µM |
| COc1ccc(S(=O)(=O)N2CCC(C(=O)N3CCCC3)CC2)cc1 | – | inconclusive [inhibitor, partial curve] |
| Cc1ccc(-n2c(SCC(=O)Nc3cccc(Cl)c3)nc3n[nH]c(C)c3c2=N)cc1 | – | active: 7.31 µM |
| COc1ccc([N+](=O)[O-])cc1NCc1ccccc1C | inactive: -27.1% | – |
| Cc1ccc(Nc2ccc(C(=O)NC3CCCCC3)cn2)cc1 | – | inconclusive [inhibitor, single point] |
| CCC(CC)NC(=O)CC(c1ccccc1)c1ccccc1 | – | inconclusive [inhibitor, partial curve, poor fit] |
